Results are given in words; binding and its absence hold for the method and conditions named. Binding seen in cells or lysates may run through a third protein. Some binding calls cover weakened binding; strength is not graded here. Tags and fused reporters may be left off the sequences shown.
Key:
Experiment in all cases: co-IP; anti-GFP (GFP nanobodies, mock-coupled control beads) IP from native lysates of HeLa Flip-In T-Rex lines expressing MTBP-3×Flag-TEV2-GFP (WT or deletions); endogenous Treslin/TICRR and Cdk8 by immunoblot
[1] = target: T1, MTBP-Δ516–809–3×Flag-TEV2-GFP-NLS (mSld7) (human) (UniProt Q96DY7)
T1 sequence: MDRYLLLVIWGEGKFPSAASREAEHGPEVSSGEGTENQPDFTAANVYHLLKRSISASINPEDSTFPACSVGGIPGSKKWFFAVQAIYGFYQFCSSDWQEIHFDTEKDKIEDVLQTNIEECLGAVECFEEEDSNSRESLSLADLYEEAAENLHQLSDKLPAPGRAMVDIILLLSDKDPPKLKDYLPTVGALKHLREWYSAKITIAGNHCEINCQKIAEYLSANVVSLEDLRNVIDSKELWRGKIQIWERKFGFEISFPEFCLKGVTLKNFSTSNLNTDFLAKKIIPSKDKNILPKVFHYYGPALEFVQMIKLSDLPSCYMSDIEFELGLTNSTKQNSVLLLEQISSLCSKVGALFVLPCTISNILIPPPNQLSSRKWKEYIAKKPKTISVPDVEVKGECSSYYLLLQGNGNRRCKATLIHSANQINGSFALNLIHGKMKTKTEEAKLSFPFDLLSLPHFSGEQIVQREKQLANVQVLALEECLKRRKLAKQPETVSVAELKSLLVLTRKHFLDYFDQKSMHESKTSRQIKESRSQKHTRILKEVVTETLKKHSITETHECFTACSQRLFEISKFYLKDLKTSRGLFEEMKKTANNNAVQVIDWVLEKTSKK

By UniProt entry, the sequences of proteins in these tests, tags left out.
UniProt Q7Z2Z1: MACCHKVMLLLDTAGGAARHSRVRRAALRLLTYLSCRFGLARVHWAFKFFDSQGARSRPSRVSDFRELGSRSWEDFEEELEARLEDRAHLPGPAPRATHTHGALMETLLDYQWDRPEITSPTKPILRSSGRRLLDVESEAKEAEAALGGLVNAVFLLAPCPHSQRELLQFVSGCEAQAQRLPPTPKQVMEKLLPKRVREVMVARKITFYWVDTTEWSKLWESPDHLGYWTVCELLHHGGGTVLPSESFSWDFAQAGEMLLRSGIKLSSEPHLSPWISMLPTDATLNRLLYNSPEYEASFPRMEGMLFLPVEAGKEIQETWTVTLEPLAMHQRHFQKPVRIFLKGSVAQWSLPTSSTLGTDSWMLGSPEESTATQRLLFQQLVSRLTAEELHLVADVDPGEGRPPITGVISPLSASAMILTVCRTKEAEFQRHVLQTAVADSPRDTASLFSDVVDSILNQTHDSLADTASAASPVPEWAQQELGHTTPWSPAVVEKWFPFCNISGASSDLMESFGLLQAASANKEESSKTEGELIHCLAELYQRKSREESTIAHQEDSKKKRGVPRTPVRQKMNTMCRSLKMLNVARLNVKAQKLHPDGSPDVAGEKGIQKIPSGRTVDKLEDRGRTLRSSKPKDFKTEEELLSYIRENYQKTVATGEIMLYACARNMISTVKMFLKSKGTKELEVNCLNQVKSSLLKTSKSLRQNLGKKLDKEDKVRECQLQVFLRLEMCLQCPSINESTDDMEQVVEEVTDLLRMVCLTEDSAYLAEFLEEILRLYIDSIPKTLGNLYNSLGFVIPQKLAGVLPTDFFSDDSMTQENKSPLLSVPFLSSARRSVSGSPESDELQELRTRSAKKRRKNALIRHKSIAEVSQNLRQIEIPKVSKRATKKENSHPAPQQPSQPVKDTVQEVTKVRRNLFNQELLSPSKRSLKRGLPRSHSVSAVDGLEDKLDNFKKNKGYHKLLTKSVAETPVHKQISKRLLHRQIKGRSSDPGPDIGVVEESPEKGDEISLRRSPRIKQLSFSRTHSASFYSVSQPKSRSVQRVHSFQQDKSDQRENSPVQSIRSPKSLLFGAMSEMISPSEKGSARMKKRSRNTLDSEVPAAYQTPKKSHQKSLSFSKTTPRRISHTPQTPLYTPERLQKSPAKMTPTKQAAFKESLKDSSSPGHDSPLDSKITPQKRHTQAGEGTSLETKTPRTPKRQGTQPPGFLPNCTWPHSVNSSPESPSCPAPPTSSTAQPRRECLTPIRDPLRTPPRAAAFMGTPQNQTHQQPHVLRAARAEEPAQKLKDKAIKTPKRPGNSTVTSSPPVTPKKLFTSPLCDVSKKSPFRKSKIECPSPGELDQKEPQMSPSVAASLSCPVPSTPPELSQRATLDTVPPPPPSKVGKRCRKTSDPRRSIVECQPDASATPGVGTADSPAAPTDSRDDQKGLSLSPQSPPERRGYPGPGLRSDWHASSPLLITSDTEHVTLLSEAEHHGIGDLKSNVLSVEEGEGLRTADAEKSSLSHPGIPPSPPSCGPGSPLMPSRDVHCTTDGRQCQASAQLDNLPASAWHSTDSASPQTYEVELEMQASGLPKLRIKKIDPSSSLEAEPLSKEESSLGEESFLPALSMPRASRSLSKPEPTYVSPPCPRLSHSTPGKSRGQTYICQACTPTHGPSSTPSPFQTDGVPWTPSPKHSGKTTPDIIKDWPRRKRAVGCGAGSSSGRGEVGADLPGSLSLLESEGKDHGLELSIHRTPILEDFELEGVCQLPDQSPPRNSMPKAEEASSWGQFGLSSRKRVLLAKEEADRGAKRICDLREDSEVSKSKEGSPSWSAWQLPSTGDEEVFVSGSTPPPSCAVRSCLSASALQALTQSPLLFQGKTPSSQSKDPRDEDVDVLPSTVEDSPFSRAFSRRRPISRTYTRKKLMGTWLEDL
UniProt P49336: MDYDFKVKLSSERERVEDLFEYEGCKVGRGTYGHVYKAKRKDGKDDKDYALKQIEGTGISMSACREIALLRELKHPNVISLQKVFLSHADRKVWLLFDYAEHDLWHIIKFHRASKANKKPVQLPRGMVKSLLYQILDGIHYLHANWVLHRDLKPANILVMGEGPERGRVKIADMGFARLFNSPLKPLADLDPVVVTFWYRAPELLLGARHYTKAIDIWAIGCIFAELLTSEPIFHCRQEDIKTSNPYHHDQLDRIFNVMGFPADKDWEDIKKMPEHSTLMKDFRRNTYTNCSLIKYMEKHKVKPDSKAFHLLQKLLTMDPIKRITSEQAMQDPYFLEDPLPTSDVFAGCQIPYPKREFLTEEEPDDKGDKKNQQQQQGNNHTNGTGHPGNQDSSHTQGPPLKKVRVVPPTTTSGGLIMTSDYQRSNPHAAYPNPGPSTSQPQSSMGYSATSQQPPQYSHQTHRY

[2] = target: T2, MTBP mutant lacking amino acids R595 to L634, Flag3-GFP-tagged (human) (UniProt Q96DY7)
T2 sequence: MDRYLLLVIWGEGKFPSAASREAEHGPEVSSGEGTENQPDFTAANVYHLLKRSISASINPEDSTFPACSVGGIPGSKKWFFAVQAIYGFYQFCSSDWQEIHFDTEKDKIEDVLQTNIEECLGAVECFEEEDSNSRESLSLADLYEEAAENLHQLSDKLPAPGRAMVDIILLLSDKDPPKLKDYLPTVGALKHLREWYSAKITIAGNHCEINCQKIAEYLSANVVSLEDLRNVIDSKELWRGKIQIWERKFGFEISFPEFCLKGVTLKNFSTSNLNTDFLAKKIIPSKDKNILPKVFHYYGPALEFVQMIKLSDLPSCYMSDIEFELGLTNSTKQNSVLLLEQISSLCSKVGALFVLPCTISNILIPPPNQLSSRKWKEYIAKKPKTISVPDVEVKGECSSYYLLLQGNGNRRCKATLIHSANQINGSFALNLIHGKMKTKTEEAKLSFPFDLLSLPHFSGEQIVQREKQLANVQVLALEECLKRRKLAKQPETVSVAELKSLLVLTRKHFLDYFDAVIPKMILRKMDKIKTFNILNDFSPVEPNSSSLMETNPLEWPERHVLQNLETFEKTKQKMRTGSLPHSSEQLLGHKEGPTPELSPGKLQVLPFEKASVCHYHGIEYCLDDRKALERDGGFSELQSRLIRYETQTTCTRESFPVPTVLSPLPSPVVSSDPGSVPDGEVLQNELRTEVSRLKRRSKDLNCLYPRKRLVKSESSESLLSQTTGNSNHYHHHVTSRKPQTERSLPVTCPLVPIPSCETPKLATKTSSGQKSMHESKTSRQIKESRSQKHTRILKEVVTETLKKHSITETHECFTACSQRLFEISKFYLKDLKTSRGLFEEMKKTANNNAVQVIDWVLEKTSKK

[3] = target: T3, MTBP-ΔT635–P704, Flag3-GFP-tagged (human) (UniProt Q96DY7)
T3 sequence: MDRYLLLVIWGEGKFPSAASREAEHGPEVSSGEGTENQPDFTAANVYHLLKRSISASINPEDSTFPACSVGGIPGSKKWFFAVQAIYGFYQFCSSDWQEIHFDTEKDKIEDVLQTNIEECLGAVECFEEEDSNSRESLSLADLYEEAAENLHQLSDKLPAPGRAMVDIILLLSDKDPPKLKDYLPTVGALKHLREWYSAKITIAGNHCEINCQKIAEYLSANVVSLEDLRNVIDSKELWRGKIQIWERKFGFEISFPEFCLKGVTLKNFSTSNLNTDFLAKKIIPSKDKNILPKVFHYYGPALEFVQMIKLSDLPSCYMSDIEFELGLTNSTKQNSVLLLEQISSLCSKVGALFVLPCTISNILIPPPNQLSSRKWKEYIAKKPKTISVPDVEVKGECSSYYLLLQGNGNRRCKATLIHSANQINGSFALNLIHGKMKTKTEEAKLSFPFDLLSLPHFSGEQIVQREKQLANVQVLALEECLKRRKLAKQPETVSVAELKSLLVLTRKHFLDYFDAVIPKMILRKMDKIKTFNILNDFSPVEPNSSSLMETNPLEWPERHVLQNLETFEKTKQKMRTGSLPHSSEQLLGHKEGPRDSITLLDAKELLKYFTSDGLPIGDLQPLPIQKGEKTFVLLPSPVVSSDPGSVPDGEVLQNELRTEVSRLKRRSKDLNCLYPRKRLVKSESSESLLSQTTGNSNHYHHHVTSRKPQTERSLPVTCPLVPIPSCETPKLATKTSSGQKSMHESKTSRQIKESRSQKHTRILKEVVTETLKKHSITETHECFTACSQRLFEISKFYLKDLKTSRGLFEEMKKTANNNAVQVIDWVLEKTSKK

“Treslin/TICRR (TopBP1-interacting replication stimulating protein/TopBP1-interacting checkpoint and replication regulator), endogenous (from UniProt Q7Z2Z1 1-1910)” was tested, and the binding [1] was “binds”.

In the case of “Cdk8 (cyclin-dependent kinase 8), endogenous (from UniProt P49336 1-464) (enzyme)”, the binding [2] was “no binding” and the binding [3] was “no binding”.
